According to the supplement of paper PMC9446081:
The campaign covered roughly 39,000 compounds. About 220 (0.56%) showed activity. The list shows a part of the results.

system: Escherichia coli K-12 BW25113; experiment: relative growth (OD600 normalised to plate interquartile mean) (fraction); higher = less growth inhibition, active = 0.2 or less; settings: 50 µM; LB; incubation time: overnight (16-24 h)
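Also: static incubation at 37 °C against the wild-type strain, values averaged over two biological replicates.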

Row | Structure (SMILES) | relative growth
1 | CO[C@@H]1CN(C)C(=O)c2cc(NC(=O)CC(F)(F)F)ccc2OC[C@@H](C)N(S(=O)(=O)c2cn(C)cn2)C[C@@H]1C | inactive: 1.02
2 | O=C(C[C@H]1C=C[C@H](NC(=O)CN2CCOCC2)[C@@H](CO)O1)NCc1cccc(F)c1 | inactive: 0.997
3 | C[C@H](CO)N1C[C@H](C)[C@H](CN(C)C(=O)Cc2ccccn2)Oc2ncc(-c3cccc(C(=O)N(C)C)c3)cc2C1=O | inactive: 1.01
4 | C[C@@H](NC(=O)C[C@@H]1C=C[C@@H](NC(=O)CN2CCOCC2)[C@@H](CO)O1)c1ccccc1 | inactive: 0.966
5 | COc1cc(NS(C)(=O)=O)ccc1Nc1c2ccccc2nc2ccccc12 | inactive: 1.02
6 | CCOCC(=O)Nc1cc(C)on1 | inactive: 0.995
7 | C[C@@H]1CCCCO[C@H](CN(C)C(=O)c2ccncc2)[C@H](C)CN([C@H](C)CO)C(=O)c2cc(NC(=O)NC3CCCCC3)ccc2O1 | inactive: 0.994
8 | C[C@@H]1CN([C@@H](C)CN=[N+]=[N-])C(=O)c2cc(NC(=O)Nc3ccccc3)ccc2O[C@@H](C)CCCCO[C@H]1CN(C)S(=O)(=O)c1ccc(F)cc1 | inactive: 1.02
9 | C[C@H](CO)N1C[C@H](C)[C@@H](CN(C)S(=O)(=O)c2ccc(Cl)cc2)Oc2ccc(N(C)C)cc2CC1=O | inactive: 1.04
10 | COc1ccc(S(=O)(=O)Nc2ccc3c(c2)CC(=O)N([C@H](C)CO)C[C@@H](C)[C@@H](CN(C)CC2CC2)O3)cc1 | inactive: 1.01
11 | CN1CCN(C(=O)C[C@H]2C[C@@H]3c4cc(NS(=O)(=O)c5ccc(F)cc5)ccc4O[C@@H]3[C@H](CO)O2)CC1 | inactive: 0.968
12 | CC(C)NC(=O)Nc1ccc2c(c1)C(=O)N([C@@H](C)CO)C[C@H](C)[C@@H](CN(C)S(=O)(=O)c1cn(C)cn1)OCCCC[C@@H](C)O2 | inactive: 1.02
13 | C[C@@H]1CN([C@H](C)CO)C(=O)CCCn2nncc2CO[C@H]1CN(C)C(=O)Nc1ccc(C(C)(C)C)cc1 | inactive: 0.99
14 | Cc1noc(C)c1NC(=O)Nc1cccc2c1O[C@@H](CN(C)Cc1ccc(Cl)c(Cl)c1)[C@@H](C)CN([C@@H](C)CO)C2=O | inactive: 0.982
15 | Cl.Cl.N=C(N)N | inactive: 0.938
16 | Cc1noc(C)c1NC(=O)Nc1ccc2c(c1)C(=O)N([C@@H](C)CO)C[C@@H](C)[C@H](CN(C)C(=O)c1ccccc1)OCCCC[C@@H](C)O2 | inactive: 1.03
17 | CC(=O)N[C@H](CC(C)C)C(=O)O | inactive: 1.04
18 | CO/N=C(\C(=O)N[C@@H]1C(=O)N2C(C(=O)O[C@@H](C)OC(C)=O)=C(COC(N)=O)CS[C@H]12)c1ccco1 | inactive: 1.01
19 | CO[C@H]1CN(C)C(=O)c2cc(NS(=O)(=O)c3cn(C)cn3)ccc2OC[C@@H](C)N(Cc2cccc(F)c2)C[C@@H]1C | inactive: 1

Row | Structure (SMILES) | relative growth
20 | CN(C)CCCC[C@@H]1NC(=O)[C@@H]2C[C@H](C(=O)NCCCCCNC(=O)CS)[C@H](c3ccc(O)cc3)N2C1=O | inactive: 0.993
21 | C[C@H]1CN([C@@H](C)CO)C(=O)c2c(c3ccccc3n2C)-c2ccccc2CO[C@@H]1CN(C)Cc1ccc(C(F)(F)F)cc1 | inactive: 1.06
22 | Cc1cc(C(=O)Nc2cccc3c2O[C@@H](CN(C)S(=O)(=O)c2ccc(Cl)cc2)[C@@H](C)CN([C@@H](C)CO)C3=O)n(C)n1 | inactive: 1
23 | COc1ccc(NC(=O)Nc2ccc3c(c2)C(=O)N([C@@H](C)CO)C[C@@H](C)[C@H](CN(C)Cc2ccccc2)OCCCC[C@H](C)O3)cc1 | inactive: 0.965
24 | C[C@H]1CN([C@@H](C)CO)C(=O)c2cccc(NS(=O)(=O)c3cn(C)cn3)c2O[C@H]1CN(C)C(=O)Nc1ccc2c(c1)OCO2 | inactive: 1
25 | CC(C)NC(=O)N(C)C[C@@H]1OCCCC[C@@H](C)Oc2ccc(NC(=O)Nc3ccccc3)cc2C(=O)N([C@H](C)CO)C[C@@H]1C | inactive: 0.998
26 | C[C@@H]1CN([C@@H](C)CO)S(=O)(=O)c2ccc(-c3cncnc3)cc2O[C@@H]1CN(C)C(=O)C1CCCCC1 | inactive: 0.98
27 | Cc1ccc(S[C@]2(C(=O)NC3CC3)CC(=O)N(C3CCCCC3)[C@@H]2c2ccc(CO)cc2I)cc1 | inactive: 1.05
28 | C[C@@H]1CCCCO[C@H](CN(C)S(=O)(=O)c2ccc(Cl)cc2)[C@@H](C)CN([C@H](C)CO)C(=O)c2cc(NS(=O)(=O)c3cccs3)ccc2O1 | inactive: 1.02
29 | CCc1nc2ccc(C(=O)N3CCN(S(=O)(=O)CC)CC3)cn2c1N(C)Cc1ccc(Cl)cc1 | inactive: 0.992
30 | C[C@@H]1CCCCO[C@@H](CN(C)Cc2ccc(C(=O)O)cc2)[C@@H](C)CN([C@H](C)CO)C(=O)c2cc(NC(=O)Nc3ccc4c(c3)OCO4)ccc2O1 | inactive: 0.973
31 | C[C@@H]1CN([C@@H](C)CO)C(=O)c2cccc(NS(=O)(=O)c3cn(C)cn3)c2O[C@@H]1CN(C)S(=O)(=O)c1ccc(Cl)cc1 | inactive: 0.92
32 | Clc1ccc(CSc2nc3ccccc3s2)cc1 | inactive: 1.02
33 | C[C@@H]1CN([C@H](C)CO)C(=O)c2cc(NC(=O)C3CCCCC3)ccc2O[C@@H]1CN(C)Cc1ccc(Cl)c(Cl)c1 | inactive: 0.987
34 | Cc1ccc(S(=O)(=O)N[C@@H]2CC[C@@H](CC(=O)NCc3ccc(Cl)c(Cl)c3)O[C@@H]2CO)cc1 | inactive: 1
35 | COCC#Cc1ccc2c(c1)O[C@H](CN(C)S(C)(=O)=O)[C@H](C)CN([C@@H](C)CO)S2(=O)=O | inactive: 0.986
36 | C[C@H]1CN([C@@H](C)CO)C(=O)c2cccc(NC(=O)C3CCCCC3)c2O[C@H]1CN(C)Cc1ccc(C(=O)Nc2ccccc2N)cc1 | inactive: 1.01
37 | CC[C@H](C)C[C@H](C)CCCCCCCCC(=O)N[C@H]1C[C@@H](O)[C@@H](NCCN)NC(=O)[C@@H]2[C@@H](O)CCN2C(=O)[C@H]([C@H](O)CCN)NC(=O)[C@H]([C@H](O)[C@@H](O)c2ccc(O)cc2)NC(=O)[C@@H]2C[C@@H](O)CN2C(=O)[C@H]([C@@H](C)O)NC1=O | active: 0.173
38 | COc1ccc2c3c(n(c2c1)C)[C@H](CO)N(C[C@]13CCN(CC1)C(=O)Nc1cccc(c1)F)C(=O)CN1CCOCC1 | inactive: 1.04
